Source: PubChem BioAssay AID651820 (National Center for Advancing Translational Sciences (NCATS), 2012)
The whole screen tested about 340,000 compounds, of which about 12,000 (3.5%) were called active. Inconclusive results, whose numbers are uncertain, are shown with a selection of clear calls. The call rests on the fitted dose curve; in most records, active means well fitted inhibition curve with a large enough effect; inconclusive means small, poorly fitted or top-dose-only effect, or another doubt; inactive means no such curve, though single readings can be large or run the other way. No potency is given beside an inconclusive call; the fits are too rough.

Assay: qHTS Assay for Inhibitors of Hepatitis C Virus (HCV)
Settings: Huh7.5.1 HCVcc-Cre (HCVcc is cell-culture hepatitis C virus) infection, luciferase reporter, 44 h; series mostly up to 41.8 µM
Method in brief: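 1,000 cells/well; 4 h culture; + compound; + HCVcc-Cre (~0.5 moi); 44 h; luciferase substrate, RT 15 min; read 15 sec.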
Potency means the concentration at half of the fitted maximal effect; tags describe the fitted curve by direction and shape.

| SMILES | Potency |
| --- | --- |
| Fc1nc(F)c(F)c(NCCCNc2c(F)c(F)nc(F)c2F)c1F | inconclusive [inhibitor, partial curve, poor fit] |
| O=C(NC1=C(NC2CCS(=O)(=O)C2)C(=O)c2ccccc2C1=O)c1ccccc1 (stereo not drawn) | inconclusive [inhibitor, single point] |
| CCC(C)C(=O)N[C@@H](c1ccccc1)[C@@H](O)C(=O)O[C@H]1C[C@@]2(O)[C@@H](OC(=O)c3ccccc3)C3[C@](C)(C(=O)[C@H](OC(C)=O)C(=C1C)C2(C)C)[C@@H](O)C[C@H]1OC[C@@]31OC(C)=O (stereo partly drawn) | inconclusive [inhibitor, full curve] |
| Cc1ccc(C(=O)NC(=S)/C=C2\N(C)c3ccccc3C2(C)C)cc1 | active: 11.2 µM |
| COc1ccc(CNC(=O)NC2CCCCC2)cc1 | inactive |
| COc1ccc(-c2csc(N(CCCN(C)C)C(=O)c3ccc(F)cc3)n2)cc1 | inactive |
| CCc1cc(C(=O)Nc2cc(S(=O)(=O)N(CC)CC)ccc2N2CCN(C)CC2)sc1C | inconclusive [inhibitor, single point] |
| O=C1Cc2cc(S(=O)(=O)N3CCN(c4cccc(Cl)c4)CC3)ccc2N1 | inconclusive [inhibitor, partial curve] |
| CC(=O)N/C(=C\c1ccccc1)C(=O)OCC(=O)N(C)C1CCCCC1 | inactive |
| C=CC[C@@H](CC(=O)N(CCO)Cc1ccccc1)C(=O)N[C@H](COC(=O)[C@@H](CC=C)Cc1ccc(F)cc1)C(C)(C)C | inconclusive [inhibitor, single point] |
| CCCn1c(N)c(C(=O)CSc2nc3ccccc3n2CCC#N)c(=O)n(C)c1=O | inactive |
| Nc1cc(N)nc(SCC(=O)Nc2ccc(Br)cc2Cl)n1 | inconclusive [inhibitor, partial curve] |
| CC(c1nc2scc(-c3ccccc3)c2c(=O)[nH]1)N1CCN(CC(=O)NC2CC2)CC1 (stereo not drawn) | inconclusive [inhibitor, single point] |
| O=C(Nc1ccc2c(c1)OCCO2)C1CCCN(S(=O)(=O)c2cccc3nsnc23)C1 (stereo not drawn) | inconclusive [inhibitor, partial curve] |
| O=C(CC(NC(=O)C(F)(F)F)c1ccccc1)Nc1nnc(CCc2ccccc2)s1 (stereo not drawn) | inactive |
| Cc1nn2c(Nc3ccc(F)cc3)c3c(nc2c1-c1ccccc1)CCC3 | inactive |
| CC(C)(C)c1ccc(C(=O)CSc2ncn[nH]2)cc1 | inconclusive [inhibitor, single point] |
| O=C(/C=C/c1ccc(Cl)cc1Cl)NCCSCc1ccccc1 | inconclusive [inhibitor, single point] |
| CC(=O)CC1(OC(C)=O)C(=O)N(C)c2ccccc21 (stereo not drawn) | inactive |
| Cc1cccc(/C=N/NC(=O)Cn2nnnc2N)n1 | inactive |
| Cc1nc2c(sc(=S)n2Cc2ccco2)c(=O)n1CC(=O)Nc1ccc(F)cc1 | inconclusive [inhibitor, partial curve] |
| Cc1nc2cc(NS(=O)(=O)c3cccc4cccnc34)ccc2s1 | inconclusive [inhibitor, partial curve] |
| O=C(N/N=C/c1ccc([N+](=O)[O-])o1)C(=O)Nc1ccc(C(=O)O)cc1 | inactive |

| SMILES | Potency |
| --- | --- |
| CCCCCn1c(N2CCCC2)nc2c1c(=O)n(C)c(=O)n2C | inconclusive [inhibitor, partial curve] |
| C/C(=C\c1ccccc1)C1NC(=O)c2c(sc3c2CCCC3)N1 (stereo not drawn) | inconclusive [inhibitor, single point] |
| CC1CCN(C(=O)c2[nH]cnc2C(=O)NCc2ccc(CNC(=O)OC(C)(C)C)cc2)CC1 | inconclusive [inhibitor, partial curve] |
| O=C(CN1CCN(S(=O)(=O)c2ccc(Cl)cc2)CC1)Nc1ccc2c(c1)CCC2 | inconclusive [inhibitor, single point] |
| COc1cc(C2c3cc4c(cc3CC3COC(=O)C32)OCO4)cc(OC)c1OC (stereo not drawn) | inconclusive [inhibitor, partial curve] |
| Cc1ccc(-c2nc(CS(=O)CC(=O)NC3CCC(C)CC3)c(C)o2)cc1 (stereo not drawn) | inactive |
| CCCCN(CCCC)CCCNC(=O)C12CN(Cc3ccccc3)CC1C(c1cccc([N+](=O)[O-])c1)=NO2 (stereo not drawn) | inconclusive [inhibitor, single point] |
| CCCCn1c(N)c(N(CC(C)C)C(=O)C2CCN(S(=O)(=O)c3ccc(OCC)cc3)CC2)c(=O)[nH]c1=O | inconclusive [inhibitor, single point] |
| C=CCn1cc(C(=O)NCC2CCCO2)c(=O)c2cc(S(=O)(=O)N3CCCCCC3)ccc21 (stereo not drawn) | inconclusive [inhibitor, single point] |
| CC(C)(C)c1ccc(NC(=O)Nc2ccc3ccccc3n2)cc1 | inactive |
| COc1ccc(N=C2SCC(=O)N2Cc2ccccc2)cc1 | inactive |
| CC12CCC(C(=Nc3ccc(N=C4C(=O)C5(C)CCC4C5(C)C)cc3)C1=O)C2(C)C | inactive |
| Cc1cccc(C(=O)Oc2ccccc2/C=N/Nc2ccc([N+](=O)[O-])cc2)c1 | inconclusive [inhibitor, full curve] |
| COc1ccc(CCNCc2cc(C)n(-c3ccc(OC)cc3)c2C)cc1 | inactive |
| O=C(c1ccccc1)c1ccccc1N/C=C/c1nnnn1-c1ccccc1 | active: 6.31 µM |
| c1ccc(N2CCN(c3ncnc4scc(-c5cccs5)c34)CC2)cc1 | active: 11.2 µM |
| O=[N+]([O-])c1cccc(/C=C/c2ccccn2)c1 | active: 12.6 µM |
| C/C(=N\NC(=S)NCCc1ccccc1)c1ccc(O)cc1O | inconclusive [inhibitor, partial curve] |
| O=C(CCc1nc(-c2ccccc2)no1)NC1CCCCCC1 | inconclusive [inhibitor, single point] |
| COc1ccc(OC)c(N2C(=O)c3cccnc3C2=O)c1 | inactive |
| Cc1ccccc1-n1c(SCc2c(C)noc2C)nnc1-c1c[nH]c2ccccc12 | inconclusive [inhibitor, single point] |
| CCOC(=O)c1cccc(NS(=O)(=O)c2c(C)[nH]c(=O)[nH]c2=O)c1 | inactive |
| CCc1cc(=O)oc2cc(C)c(CN3CCCC(C)C3)c(O)c12 (stereo not drawn) | inconclusive [inhibitor, single point] |

| SMILES | Potency |
| --- | --- |
| COc1cccc(NC(=O)CCN2C(=O)c3ccccc3Sc3ncccc32)c1 | inactive |
| Cc1cc(C)c2c(=O)c3c(oc2c1)C(=O)N(CCO)C3c1cccc(O)c1 (stereo not drawn) | inconclusive [inhibitor, full curve] |
| O=C(CCn1nc(-c2ccc(Cl)cc2)ccc1=O)N1CCN(c2ccc(F)cc2)CC1 | inconclusive [inhibitor, single point] |
| CCOC(=O)COc1cc(N)c(Cl)cc1Cl | inconclusive [inhibitor, single point] |
| N#C/C(=C/c1cccs1)c1ccccn1 | inconclusive [inhibitor, single point] |
| CCc1nnc(NC(=O)c2sc3nc4cc(C)ccc4cc3c2N)s1 | inconclusive [inhibitor, single point] |
| COc1ccc2oc(=O)cc(-c3cc4ccccc4o3)c2c1 | inconclusive [inhibitor, partial curve] |
| C=CCn1c(SCC(=O)N(CCOC)c2c(N)n(CC(C)C)c(=O)[nH]c2=O)nc2ccccc21 | inactive |
| COc1ccc(S(=O)(=O)Nc2ccc3c(c2)C(=O)N([C@H](C)CO)C[C@@H](C)[C@@H](CN(C)S(=O)(=O)c2ccc(Cl)cc2)O3)cc1 | inconclusive [inhibitor, single point] |
| O=C(Nc1ccc(N2CCCC2)c(Cl)c1)c1ccc(Br)o1 | inconclusive [inhibitor, partial curve, poor fit] |
| COc1cc2c(c(OC)c1OC)-c1ccc(NC(=O)c3ccc(F)cc3)c(=O)cc1[C@@H](NC(C)=O)CC2 | inconclusive [inhibitor, partial curve] |
| COc1ccccc1C(=O)NCCC(=O)N1CCCCCCC1 | inactive |
| NC(=O)N/N=C/c1c(Sc2nnnn2-c2ccccc2)nc2ccccn2c1=O | inconclusive [inhibitor, single point] |
| Cc1ccc(-n2nc3c4c(cccc4c2=O)-c2ccccc2-3)cc1 | inconclusive [inhibitor, partial curve] |
| COc1ccc(N=Nc2cc(-c3ccccc3)ccc2O)cc1 | inconclusive [inhibitor, single point] |
| CCOC(=O)c1c(-c2ccc(C)cc2)csc1/N=C(\C)C1=C(O)c2ccccc2C1=O | inconclusive [inhibitor, full curve] |
| Cn1c(Cl)c(C(=O)Nc2ccccc2)c2ccccc21 | inconclusive [inhibitor, partial curve] |
| Cc1ccc(NS(=O)(=O)c2ccc3c(c2)oc(=O)n3C)cc1 | inactive |
| Cc1cc(N/N=C2/CCCc3ccccc32)nc2ccccc12 | inconclusive [inhibitor, single point] |
| Cc1ccc(Sc2ccc(NC(=O)CCl)cc2)c(C)c1 | inconclusive [inhibitor, single point] |
| CC(C)(C)c1ccc(S(=O)(=O)/N=C2\C=C(NS(=O)(=O)c3ccccc3)C(=O)c3ccccc32)cc1 | inactive |
| Cc1ccc(NC(=O)CSc2ccc(-c3ccco3)nn2)cc1 | inconclusive [inhibitor, single point] |
